# Results published in PubChem BioAssay AID686978 (National Center for Advancing Translational Sciences (NCATS), 2013).
# Among all 420,000 compounds or so, about 64,000 (15%) were called active. The inconclusive results got no clear call from the source; some entries with a clear call stand among them for comparison. The call rests on the fitted dose curve; in most records, active means well fitted inhibition curve with a large enough effect; inconclusive means small, poorly fitted or top-dose-only effect; inactive means flat fitted curve, though single readings scatter. Potencies of inconclusive entries are left out as doubtful fits.
# Experiment: qHTS for Inhibitors of human tyrosyl-DNA phosphodiesterase 1 (TDP1): qHTS in cells in absence of CPT; further: nearly all actives have a fitted effect of over 55% in size
# Details: DT40 Tdp1-/- hTDP1 cells, no CPT, ATP luminescence, 48 h; activity change, negative = growth inhibition: at 46.2 µM (top of the series) unless noted
# Summary of the method: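 Growth of hTDP1-complemented DT40 Tdp1-knockout cells is measured by ATP luminescence after at least 48 hr compound exposure at 37 °C, with DMSO substituting for the 20 nM CPT used in the parallel screen.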
# On the % scale 0 is the no-effect control and ±100 the full control effect; potency means the concentration at half of the fitted maximal effect; tags describe the fitted curve by direction and shape.
SMILES,Potency,"activity change, negative = growth inhibition"
O=C(/C=C/c1ccccc1)c1cccs1,active: 9.44 µM,
Cc1ccc(-c2nnc(CSc3nc(C(C)C)nc4sc(C)c(C)c34)o2)cc1,"inconclusive [inhibitor, single point]",
Cc1ccc(N2CC(C(=O)Nc3nnc(C)s3)CC2=O)cc1 (centres undefined),inactive,
CC(Sc1nc2sc3c(c2c(=O)n1-c1ccccc1)CCCC3)C(=O)O (centres undefined),inactive,
CCC1Oc2ccccc2N(CC(=O)N2CCCC2)C1=O (centres undefined),,inconclusive: -6.36% [inhibitor]
CCc1ccccc1N(CC(=O)NCc1ccco1)C(=O)CCC(=O)Nc1nccs1,inactive,
COc1ccccc1-c1nnc2sc(C3CCCCC3)nn12,"inconclusive [inhibitor, single point]",
Cc1ccc2c(CC(=O)NC3CCCc4ccccc43)coc2c1 (centres undefined),,inconclusive: -35% [inhibitor]
COCCNC(=O)c1cccc(OC2CCN(C(C)COc3ccccc3)CC2)c1 (centres undefined),inactive,
CSc1ccc(C(=O)C2CCCN(C(=O)c3ccc(C)nc3)C2)cc1 (centres undefined),"inconclusive [inhibitor, single point]",
Cc1c(Cl)cccc1NC(=O)C(=O)NNC(=O)c1ccccc1F,"inconclusive [inhibitor, single point]",
CC[C@H]1OC(=O)C[C@@H](O)[C@H](C)[C@@H](O[C@@H]2O[C@H](C)[C@@H](O)[C@H](N(C)C)[C@H]2O)[C@@H](CCN2C[C@H](C)C[C@H](C)C2)C[C@@H](C)C(=O)/C=C/C(C)=C/[C@@H]1CO[C@@H]1O[C@H](C)[C@@H](O)[C@@H](OC)[C@H]1OC,inactive,
N/C(=N\OC(=O)c1cccc(Cl)c1)c1ccncc1,inactive,
Cc1nc(C(=O)NNC(=O)c2ccccc2)c(C(F)(F)F)o1,"inconclusive [inhibitor, single point]",
Cc1ccc(OCC(=O)Nc2ccccc2C(=O)OCc2cc(=O)n3nc(C4CC4)sc3n2)cc1,active: 10.3 µM,
CSc1ccccc1NC(=O)C1CC(c2c(F)cccc2Cl)=NO1 (centres undefined),"inconclusive [inhibitor, single point]",
CC1CCN(C(=O)c2c(NC(=O)c3ccccc3F)sc3c2CCC(C(C)(C)C)C3)CC1 (centres undefined),inactive,
Cc1nc2ccccn2c(=O)c1NC(=O)c1c(F)cccc1F,inactive,
CNC(=O)N(O)C1N(/N=C/c2ccccc2O)C(=S)SC1(C)C (centres undefined),active: 2.06 µM,
Clc1ccc(-c2cnc3cccnn23)cc1,"inconclusive [inhibitor, partial curve, poor fit]",
Cc1cccc(CNc2ncncc2-c2cccc(NS(C)(=O)=O)c2)c1,inactive,
COc1ccc(CCNC(=S)N2CCN(S(=O)(=O)c3ccccc3F)CC2)cc1,"inconclusive [inhibitor, single point]",
Cc1noc(C)c1CSCC(=O)Nc1ccccc1N1CCCC1,"inconclusive [inhibitor, partial curve]",
COc1ccc([C@H]2CC(=O)C=C(c3cccc(Cl)c3)C2)cc1OC,"inconclusive [inhibitor, single point]",
O=C(NC1CC2CCCC(C1)N2S(=O)(=O)c1ccccc1)C1CCCCC1 (centres undefined),"inconclusive [inhibitor, single point]",

SMILES,Potency,"activity change, negative = growth inhibition"
Cc1ccc(CN(Cc2ccco2)C(=O)COc2c(C)cc(C)cc2C)cc1,active: 9.2 µM,
COc1ccc([C@H]2CC(=O)C=C(c3ccc(Cl)c(F)c3)C2)cc1,inactive,
CC(C)(C)OC(=O)N[C@@H](Cc1ccccc1)[C@H](O)c1ccco1,"inconclusive [inhibitor, partial curve]",
CCn1cc(S(=O)(=O)c2ccc(OC)cc2)c(=O)c2cc(F)c(N3CCC(C)CC3)cc21,active: 25.9 µM,
COc1c(O)cc2oc(-c3ccc(O)cc3)cc(=O)c2c1O,"inconclusive [inhibitor, single point]",
COc1ccc(C(C)(C)C)cc1NC(=O)c1ccc2ncsc2c1,"inconclusive [inhibitor, single point]",
O=C(COc1ccccc1Br)NC1CCCC1,"inconclusive [inhibitor, single point]",
Cc1nc2ccc(C(=O)OCC(=O)N(C)c3ccccc3)cc2nc1C,"inconclusive [inhibitor, single point]",
Oc1ccc(-c2nc3ccccn3c2Nc2ccc3c(c2)OCCO3)cc1,"inconclusive [inhibitor, single point]",
O=C1C(Cl)=C(N2CCCCC2)C(=O)N1Cc1ccccc1,"inconclusive [inhibitor, partial curve]",
OCC1(Cc2ccccc2F)CCCN(CCc2ccccc2)C1 (centres undefined),"inconclusive [inhibitor, single point]",
CCOC(=O)Nc1oc2ccccc2c(=O)c1CN1CCOCC1,"inconclusive [inhibitor, partial curve, poor fit]",
CCN(CC)C(=O)C(Oc1ccc(S(=O)(=O)N2CCCC2)cc1[N+](=O)[O-])c1ccccc1 (centres undefined),"inconclusive [inhibitor, single point]",
CCCCNS(=O)(=O)c1ccc2nc(-c3cccnc3)cc(C(=O)NCCC)c2c1,inactive,
Cc1ccc(C(=O)/C=C/c2ccc3c(c2)OCCO3)c(O)c1,"inconclusive [inhibitor, single point]",
CC(C)(Oc1ccc(Cl)cc1)C(=O)OCC(=O)N1CCN(c2ccccc2)CC1,inactive,
CCOC(=O)c1cc(C)nn1-c1nc(Cl)cc(OC)n1,inactive,
CN(CC(=O)Nc1ccc(F)cc1)c1ccc(S(=O)(=O)N2CCCC2)cn1,"inconclusive [inhibitor, single point]",
CCCOc1ccc(C(=O)Nc2ccc(CN3CCOCC3)cc2)cc1,"inconclusive [inhibitor, single point]",
CCCCCCSc1ccc(-c2nc3ccc(C)cn3c2NCc2ccccc2)cc1OC,active: 18.4 µM,
COCCNC(=O)C(c1ccco1)N(C(=O)Cn1nnc2ccccc21)c1ccccc1C (centres undefined),inactive,
Cc1[nH]oc(=O)c1N=Nc1ccccc1,"inconclusive [inhibitor, partial curve]",
CCOc1cc(CNc2ccc(CNc3ncn[nH]3)cc2)ccc1OCc1ccccc1,"inconclusive [inhibitor, partial curve, poor fit]",
COc1cccc(NC(=O)c2ccn(C)n2)c1,inactive,
CC(=O)N1C2=CCCC3CCCCC23c2ccccc21 (centres undefined),active: 25.9 µM,

SMILES,Potency,"activity change, negative = growth inhibition"
Nc1nc(-c2ccccc2)c(C(=O)Nc2ccccc2)s1,,inconclusive: -30.3% [inhibitor]
CSCCC1NC(=S)N(Cc2ccccc2)C1=O (centres undefined),inactive,
CCCc1nn2c(=O)cc(COC(=O)c3cccc(NC(=O)CCc4ccccc4)c3)nc2s1,inactive,
COCCNC(=O)CSc1c2c(nc3cc(Cl)ccc13)CCCC2,"inconclusive [inhibitor, single point]",
NCCNc1cccc2ccccc12,"inconclusive [inhibitor, single point]",
O=c1[nH]n(-c2ccc(Cl)cc2)c(=O)c(Cl)c1Cl,"inconclusive [inhibitor, single point]",
Cc1cc(NC(=O)Nc2cccc(Cl)c2)n(-c2ccccn2)n1,active: 18.4 µM,
CC(C)c1ccc(CNn2cnnc2)cc1,"inconclusive [inhibitor, single point]",
CC1=C(C(=O)OCC2CCCCC2)C(c2ccc(O)cc2)NC(=O)N1 (centres undefined),"inconclusive [inhibitor, single point]",
O=C(OCN1C(=O)c2ccccc2C1=O)c1cccs1,,inconclusive: -29.5% [inhibitor]
COc1ccc(C(=O)NC(=S)NNC(=O)CCc2ccccc2)cc1,active: 6.51 µM,
CCOc1ccc(CNC(=O)C2CCN(S(=O)(=O)N3CCCCC3)CC2)cc1,"inconclusive [inhibitor, single point]",
O=C(N/N=C/c1ccccn1)c1ccc(NC(=O)c2ccc(F)cc2)cc1,"inconclusive [inhibitor, single point]",
COc1ccc(CC(=O)Nc2ccncc2Cl)cc1,active: 1.84 µM,
CCCCSc1nnc2n(-c3cccc(C)c3)c(=O)c3c4c(sc3n12)CCCC4,active: 16.4 µM,
COc1ccc(-c2[nH]n(-c3ccc([N+](=O)[O-])cc3)c(=O)c2C=NCc2ccc(F)cc2)cc1,"inconclusive [inhibitor, partial curve]",
COC1=CC(=O)OC(c2ccc(C#N)cc2)C1 (centres undefined),inactive,
O=[N+]([O-])c1ccc(/C=C/c2ccc3cccnc3c2)cc1,active: 10 µM,
CCOc1ccc(NC(=O)c2ccc(NC(=O)C3CCCO3)cc2)cc1 (centres undefined),inactive,
CC(=O)Nc1nonc1-c1nnc(SCc2ccc(F)cc2)n1C,"inconclusive [inhibitor, partial curve]",
Cc1cccc([C@@H]2[C@@H]3C(=O)N(C)C(=O)[C@@H]3[C@@H]3C(=O)Nc4ccccc4C(=O)N23)c1,inactive,
O=C(Nc1ccc2c(c1)OCO2)C1CCN(S(=O)(=O)c2cccs2)CC1,inactive,
N#Cc1c(NCCO)nc(NCc2ccccc2)c2c1CCN(Cc1ccccc1)C2,"inconclusive [inhibitor, single point]",
COc1ccc(CCN(Cc2ccccn2)C(=S)Nc2ccccc2C)cc1OC,"inconclusive [inhibitor, single point]",
